We go through 9 molecules from paper PMC4658161.

Chains of the proteins cited; added tags and fusions are not shown. Residues count along the entry.
UniProt P08648, residues 42-1049: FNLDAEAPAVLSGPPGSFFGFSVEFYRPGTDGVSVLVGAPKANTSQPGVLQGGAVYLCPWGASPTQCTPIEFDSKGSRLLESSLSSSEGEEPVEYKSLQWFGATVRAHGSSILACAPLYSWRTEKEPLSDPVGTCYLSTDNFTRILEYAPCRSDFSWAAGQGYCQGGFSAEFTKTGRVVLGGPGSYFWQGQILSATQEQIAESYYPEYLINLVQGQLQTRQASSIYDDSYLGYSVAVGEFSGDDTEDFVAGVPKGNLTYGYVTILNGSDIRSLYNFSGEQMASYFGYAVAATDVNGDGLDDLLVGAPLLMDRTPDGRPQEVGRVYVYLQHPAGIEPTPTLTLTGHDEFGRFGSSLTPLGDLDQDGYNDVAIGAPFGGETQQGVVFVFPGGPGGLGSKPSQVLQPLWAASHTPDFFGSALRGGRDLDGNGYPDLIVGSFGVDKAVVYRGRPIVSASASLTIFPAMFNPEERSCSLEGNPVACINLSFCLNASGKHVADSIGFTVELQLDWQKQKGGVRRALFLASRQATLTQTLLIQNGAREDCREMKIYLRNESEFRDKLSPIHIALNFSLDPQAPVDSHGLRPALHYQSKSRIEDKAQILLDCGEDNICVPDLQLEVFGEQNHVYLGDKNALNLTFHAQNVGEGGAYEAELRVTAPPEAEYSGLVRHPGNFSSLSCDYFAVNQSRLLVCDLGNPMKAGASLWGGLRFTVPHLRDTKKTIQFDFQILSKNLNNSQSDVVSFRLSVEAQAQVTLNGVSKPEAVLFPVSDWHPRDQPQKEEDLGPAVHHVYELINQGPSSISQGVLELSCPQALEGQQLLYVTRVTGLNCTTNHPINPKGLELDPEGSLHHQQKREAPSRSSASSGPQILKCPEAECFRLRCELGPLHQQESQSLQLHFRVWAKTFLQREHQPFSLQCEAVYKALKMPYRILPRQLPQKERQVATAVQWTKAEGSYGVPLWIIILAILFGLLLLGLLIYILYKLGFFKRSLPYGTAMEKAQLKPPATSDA
UniProt Q96EP0: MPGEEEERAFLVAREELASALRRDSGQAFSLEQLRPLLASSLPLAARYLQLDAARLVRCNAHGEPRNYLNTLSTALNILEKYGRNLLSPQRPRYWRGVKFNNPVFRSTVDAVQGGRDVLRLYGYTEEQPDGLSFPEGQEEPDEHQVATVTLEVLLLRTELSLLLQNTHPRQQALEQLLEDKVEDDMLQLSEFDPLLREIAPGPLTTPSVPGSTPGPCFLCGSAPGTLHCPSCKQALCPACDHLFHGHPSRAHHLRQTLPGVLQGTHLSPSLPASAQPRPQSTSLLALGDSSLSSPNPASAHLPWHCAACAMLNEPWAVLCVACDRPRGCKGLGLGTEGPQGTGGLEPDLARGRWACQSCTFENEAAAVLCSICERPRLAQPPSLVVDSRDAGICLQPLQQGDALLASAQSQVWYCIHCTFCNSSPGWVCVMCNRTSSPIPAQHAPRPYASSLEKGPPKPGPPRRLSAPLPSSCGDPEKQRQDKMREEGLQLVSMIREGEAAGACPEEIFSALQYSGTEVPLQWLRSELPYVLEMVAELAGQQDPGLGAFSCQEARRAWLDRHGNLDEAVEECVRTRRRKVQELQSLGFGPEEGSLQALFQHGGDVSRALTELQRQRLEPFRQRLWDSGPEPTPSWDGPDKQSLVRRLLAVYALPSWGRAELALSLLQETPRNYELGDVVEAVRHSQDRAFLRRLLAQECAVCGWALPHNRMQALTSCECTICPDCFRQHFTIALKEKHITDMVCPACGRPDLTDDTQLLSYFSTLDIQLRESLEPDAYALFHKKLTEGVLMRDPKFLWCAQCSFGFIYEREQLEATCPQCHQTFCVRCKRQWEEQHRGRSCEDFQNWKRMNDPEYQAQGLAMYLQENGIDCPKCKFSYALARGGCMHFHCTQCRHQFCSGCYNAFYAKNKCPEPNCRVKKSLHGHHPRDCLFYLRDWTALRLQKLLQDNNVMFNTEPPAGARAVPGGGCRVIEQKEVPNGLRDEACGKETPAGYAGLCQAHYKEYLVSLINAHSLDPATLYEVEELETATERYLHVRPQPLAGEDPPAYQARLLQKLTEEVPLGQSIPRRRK

No constants are given. Whether binding was seen depends on the method and setting. For some assays here: Binding seen in cells or lysates may run through a third protein. Some results given as binding are weak or reduced against the parent protein; the word gives no strength. For some assays here: Sequences can lack the tags named with a protein.

In one assay the target is T1, GST-SHARPIN^WT (UniProt Q9H0F6).
T1 sequence: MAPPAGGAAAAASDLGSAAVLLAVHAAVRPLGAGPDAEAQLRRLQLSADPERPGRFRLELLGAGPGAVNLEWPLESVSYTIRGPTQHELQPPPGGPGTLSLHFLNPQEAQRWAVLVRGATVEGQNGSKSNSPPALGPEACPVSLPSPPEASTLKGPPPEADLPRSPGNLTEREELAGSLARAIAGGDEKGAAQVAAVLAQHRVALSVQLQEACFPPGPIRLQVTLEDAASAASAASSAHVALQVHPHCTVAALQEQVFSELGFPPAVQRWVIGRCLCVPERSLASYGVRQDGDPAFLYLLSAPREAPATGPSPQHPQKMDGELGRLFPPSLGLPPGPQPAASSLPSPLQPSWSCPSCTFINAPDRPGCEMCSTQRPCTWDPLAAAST
The assay can be described thus: pull-down; GST-SHARPIN and recombinant RNF31 in vitro, with or without the ITGAL cytoplasmic-domain peptide; both purified.

Another assay deals with ITGA5-mCherry (UniProt P08648). The assay can be described thus: FRET or BRET; FRET measured by FLIM between GFP-SHARPIN (WT or mutants) and ITGA5-mCherry overexpressed in HEK293 cells.
For assay [1], the target named is recombinant RNF31 (UniProt Q96EP0). The assay can be described thus: far-Western; GST-SHARPIN (WT, fragments or point mutants) with recombinant full-length ITGAL-ITGB2 or recombinant RNF31; which partner was on the membrane is not told; performed as described in ref. 5; both purified.
Assay [2] shares this target. The assay can be described thus: ELISA; recombinant RNF31 coated on 96-well plates overnight at +4°C; 0.1 mM GST-SHARPIN WT or mutant, 3 h at room temperature in 0.1% Tween20, 5% BSA, 10 μM ZnCl2, 1 mM DTT in TBS; detected with anti-GST; both purified.
Assay [3] shares this target. The assay can be described thus: pull-down; GST-SHARPIN and recombinant RNF31 in vitro, with or without the ITGAL cytoplasmic-domain peptide; both purified.
The target of assay [4] is T2, endogenous ITGAL (Jurkat cells) (human (endogenous in Jurkat)) (UniProt P20701).
T2 sequence: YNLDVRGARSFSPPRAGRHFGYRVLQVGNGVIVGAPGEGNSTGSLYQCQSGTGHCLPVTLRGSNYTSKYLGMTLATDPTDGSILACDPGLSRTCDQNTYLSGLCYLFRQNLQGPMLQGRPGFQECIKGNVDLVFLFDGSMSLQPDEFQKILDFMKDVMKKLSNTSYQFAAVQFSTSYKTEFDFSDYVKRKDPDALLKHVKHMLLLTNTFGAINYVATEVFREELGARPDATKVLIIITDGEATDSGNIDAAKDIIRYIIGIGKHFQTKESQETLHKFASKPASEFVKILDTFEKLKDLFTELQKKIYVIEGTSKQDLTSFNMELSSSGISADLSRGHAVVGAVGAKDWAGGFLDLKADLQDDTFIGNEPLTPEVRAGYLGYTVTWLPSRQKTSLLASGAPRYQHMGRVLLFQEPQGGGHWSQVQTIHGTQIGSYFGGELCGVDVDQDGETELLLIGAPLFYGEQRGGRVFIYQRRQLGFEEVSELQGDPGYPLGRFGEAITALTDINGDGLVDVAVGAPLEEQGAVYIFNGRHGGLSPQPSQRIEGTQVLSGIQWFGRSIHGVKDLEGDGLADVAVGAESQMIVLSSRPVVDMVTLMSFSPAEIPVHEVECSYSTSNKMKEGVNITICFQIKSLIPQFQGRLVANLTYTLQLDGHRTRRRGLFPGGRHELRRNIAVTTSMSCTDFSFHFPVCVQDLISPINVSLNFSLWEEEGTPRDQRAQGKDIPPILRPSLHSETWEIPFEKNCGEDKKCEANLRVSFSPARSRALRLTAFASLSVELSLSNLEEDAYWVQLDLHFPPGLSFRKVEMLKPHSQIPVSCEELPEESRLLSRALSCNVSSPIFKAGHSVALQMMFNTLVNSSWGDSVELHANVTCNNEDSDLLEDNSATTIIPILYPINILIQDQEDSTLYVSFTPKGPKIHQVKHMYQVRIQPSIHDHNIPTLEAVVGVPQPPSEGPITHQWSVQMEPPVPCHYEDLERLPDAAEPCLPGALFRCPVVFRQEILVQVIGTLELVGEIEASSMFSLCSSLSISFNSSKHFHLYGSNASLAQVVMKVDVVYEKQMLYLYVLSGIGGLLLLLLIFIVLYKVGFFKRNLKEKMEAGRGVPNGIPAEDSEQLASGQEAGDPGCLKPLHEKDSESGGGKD
The assay can be described thus: co-IP; endogenous proteins from Jurkat cells, immunoprecipitated with an ITGAL antibody (GFP antibody as negative control).

B1: biotinylated peptide corresponding to the cytoplasmic domain of human ITGAL (peptide, UniProt P20701 1112-1170)
peptide: YKVGFFKRNLKEKMEAGRGVPNGIPAEDSEQLASGQEAGDPGCLKPLHEKDSESGGGKD
modifications: biotinylated (position not given)
Consider B1, for which the binding entry with GST-SHARPIN^WT is “binds”.

B2: GFP-SHARPIN^E260A/L261A (protein, UniProt Q9H0F6 1-387)
chain: MAPPAGGAAAAASDLGSAAVLLAVHAAVRPLGAGPDAEAQLRRLQLSADPERPGRFRLELLGAGPGAVNLEWPLESVSYTIRGPTQHELQPPPGGPGTLSLHFLNPQEAQRWAVLVRGATVEGQNGSKSNSPPALGPEACPVSLPSPPEASTLKGPPPEADLPRSPGNLTEREELAGSLARAIAGGDEKGAAQVAAVLAQHRVALSVQLQEACFPPGPIRLQVTLEDAASAASAASSAHVALQVHPHCTVAALQEQVFSAAGFPPAVQRWVIGRCLCVPERSLASYGVRQDGDPAFLYLLSAPREAPATGPSPQHPQKMDGELGRLFPPSLGLPPGPQPAASSLPSPLQPSWSCPSCTFINAPDRPGCEMCSTQRPCTWDPLAAAST
Regarding B2, the binding entry in the assay with ITGA5-mCherry was “binds”.

B3: GST-SHARPIN^WT (protein, UniProt Q9H0F6 1-387)
chain: MAPPAGGAAAAASDLGSAAVLLAVHAAVRPLGAGPDAEAQLRRLQLSADPERPGRFRLELLGAGPGAVNLEWPLESVSYTIRGPTQHELQPPPGGPGTLSLHFLNPQEAQRWAVLVRGATVEGQNGSKSNSPPALGPEACPVSLPSPPEASTLKGPPPEADLPRSPGNLTEREELAGSLARAIAGGDEKGAAQVAAVLAQHRVALSVQLQEACFPPGPIRLQVTLEDAASAASAASSAHVALQVHPHCTVAALQEQVFSELGFPPAVQRWVIGRCLCVPERSLASYGVRQDGDPAFLYLLSAPREAPATGPSPQHPQKMDGELGRLFPPSLGLPPGPQPAASSLPSPLQPSWSCPSCTFINAPDRPGCEMCSTQRPCTWDPLAAAST
With B3, the binding result with recombinant RNF31 [1], with recombinant RNF31 [2] and with recombinant RNF31 [3] was “binds” throughout.

B4: GFP-SHARPIN^V240A/L242A (protein, UniProt Q9H0F6 1-387)
chain: MAPPAGGAAAAASDLGSAAVLLAVHAAVRPLGAGPDAEAQLRRLQLSADPERPGRFRLELLGAGPGAVNLEWPLESVSYTIRGPTQHELQPPPGGPGTLSLHFLNPQEAQRWAVLVRGATVEGQNGSKSNSPPALGPEACPVSLPSPPEASTLKGPPPEADLPRSPGNLTEREELAGSLARAIAGGDEKGAAQVAAVLAQHRVALSVQLQEACFPPGPIRLQVTLEDAASAASAASSAHAAAQVHPHCTVAALQEQVFSELGFPPAVQRWVIGRCLCVPERSLASYGVRQDGDPAFLYLLSAPREAPATGPSPQHPQKMDGELGRLFPPSLGLPPGPQPAASSLPSPLQPSWSCPSCTFINAPDRPGCEMCSTQRPCTWDPLAAAST
As to B4, the binding entry with ITGA5-mCherry is recorded as “binds”.

B5: GFP-SHARPIN^WT (protein, UniProt Q9H0F6 1-387)
chain: MAPPAGGAAAAASDLGSAAVLLAVHAAVRPLGAGPDAEAQLRRLQLSADPERPGRFRLELLGAGPGAVNLEWPLESVSYTIRGPTQHELQPPPGGPGTLSLHFLNPQEAQRWAVLVRGATVEGQNGSKSNSPPALGPEACPVSLPSPPEASTLKGPPPEADLPRSPGNLTEREELAGSLARAIAGGDEKGAAQVAAVLAQHRVALSVQLQEACFPPGPIRLQVTLEDAASAASAASSAHVALQVHPHCTVAALQEQVFSELGFPPAVQRWVIGRCLCVPERSLASYGVRQDGDPAFLYLLSAPREAPATGPSPQHPQKMDGELGRLFPPSLGLPPGPQPAASSLPSPLQPSWSCPSCTFINAPDRPGCEMCSTQRPCTWDPLAAAST
Take B5: the binding result with ITGA5-mCherry is given as “binds”.

B6: GFP-SHARPIN^I272A (protein, UniProt Q9H0F6 1-387)
chain: MAPPAGGAAAAASDLGSAAVLLAVHAAVRPLGAGPDAEAQLRRLQLSADPERPGRFRLELLGAGPGAVNLEWPLESVSYTIRGPTQHELQPPPGGPGTLSLHFLNPQEAQRWAVLVRGATVEGQNGSKSNSPPALGPEACPVSLPSPPEASTLKGPPPEADLPRSPGNLTEREELAGSLARAIAGGDEKGAAQVAAVLAQHRVALSVQLQEACFPPGPIRLQVTLEDAASAASAASSAHVALQVHPHCTVAALQEQVFSELGFPPAVQRWVAGRCLCVPERSLASYGVRQDGDPAFLYLLSAPREAPATGPSPQHPQKMDGELGRLFPPSLGLPPGPQPAASSLPSPLQPSWSCPSCTFINAPDRPGCEMCSTQRPCTWDPLAAAST
Take B6: the binding entry with ITGA5-mCherry was “binds”.

B7: GFP-SHARPIN^L261A/F263A (protein, UniProt Q9H0F6 1-387)
chain: MAPPAGGAAAAASDLGSAAVLLAVHAAVRPLGAGPDAEAQLRRLQLSADPERPGRFRLELLGAGPGAVNLEWPLESVSYTIRGPTQHELQPPPGGPGTLSLHFLNPQEAQRWAVLVRGATVEGQNGSKSNSPPALGPEACPVSLPSPPEASTLKGPPPEADLPRSPGNLTEREELAGSLARAIAGGDEKGAAQVAAVLAQHRVALSVQLQEACFPPGPIRLQVTLEDAASAASAASSAHVALQVHPHCTVAALQEQVFSEAGAPPAVQRWVIGRCLCVPERSLASYGVRQDGDPAFLYLLSAPREAPATGPSPQHPQKMDGELGRLFPPSLGLPPGPQPAASSLPSPLQPSWSCPSCTFINAPDRPGCEMCSTQRPCTWDPLAAAST
B7: the binding entry in the assay with ITGA5-mCherry is recorded as “binds”.

B8: GFP-SHARPIN^L276A (protein, UniProt Q9H0F6 1-387)
chain: MAPPAGGAAAAASDLGSAAVLLAVHAAVRPLGAGPDAEAQLRRLQLSADPERPGRFRLELLGAGPGAVNLEWPLESVSYTIRGPTQHELQPPPGGPGTLSLHFLNPQEAQRWAVLVRGATVEGQNGSKSNSPPALGPEACPVSLPSPPEASTLKGPPPEADLPRSPGNLTEREELAGSLARAIAGGDEKGAAQVAAVLAQHRVALSVQLQEACFPPGPIRLQVTLEDAASAASAASSAHVALQVHPHCTVAALQEQVFSELGFPPAVQRWVIGRCACVPERSLASYGVRQDGDPAFLYLLSAPREAPATGPSPQHPQKMDGELGRLFPPSLGLPPGPQPAASSLPSPLQPSWSCPSCTFINAPDRPGCEMCSTQRPCTWDPLAAAST
In the case of B8, the binding entry in the assay with ITGA5-mCherry is “binds”.

B9: endogenous SHARPIN (Jurkat cells) (protein, UniProt Q9H0F6 1-387)
chain: MAPPAGGAAAAASDLGSAAVLLAVHAAVRPLGAGPDAEAQLRRLQLSADPERPGRFRLELLGAGPGAVNLEWPLESVSYTIRGPTQHELQPPPGGPGTLSLHFLNPQEAQRWAVLVRGATVEGQNGSKSNSPPALGPEACPVSLPSPPEASTLKGPPPEADLPRSPGNLTEREELAGSLARAIAGGDEKGAAQVAAVLAQHRVALSVQLQEACFPPGPIRLQVTLEDAASAASAASSAHVALQVHPHCTVAALQEQVFSELGFPPAVQRWVIGRCLCVPERSLASYGVRQDGDPAFLYLLSAPREAPATGPSPQHPQKMDGELGRLFPPSLGLPPGPQPAASSLPSPLQPSWSCPSCTFINAPDRPGCEMCSTQRPCTWDPLAAAST
Take B9: in assay [4], the binding result is “binds”.
